According to the supplement of paper PMC3334620:
Whole data set: some 33,000 sequences, median “E-score (-0.5 to 0.5)” near -0.054, cut for the highest 2% near 0.35. The list shows a part of the results.

These sequences were tested against T1, Stb5 (UniProt P38699) (assay: PBM E-score (8-mer binding enrichment) (E-score (-0.5 to 0.5)); higher = stronger / more preferred TF binding; most listed sequences are background and not binding sites). Settings: protein concentration: 200 nM; construct: GST-full length.
T1 sequence: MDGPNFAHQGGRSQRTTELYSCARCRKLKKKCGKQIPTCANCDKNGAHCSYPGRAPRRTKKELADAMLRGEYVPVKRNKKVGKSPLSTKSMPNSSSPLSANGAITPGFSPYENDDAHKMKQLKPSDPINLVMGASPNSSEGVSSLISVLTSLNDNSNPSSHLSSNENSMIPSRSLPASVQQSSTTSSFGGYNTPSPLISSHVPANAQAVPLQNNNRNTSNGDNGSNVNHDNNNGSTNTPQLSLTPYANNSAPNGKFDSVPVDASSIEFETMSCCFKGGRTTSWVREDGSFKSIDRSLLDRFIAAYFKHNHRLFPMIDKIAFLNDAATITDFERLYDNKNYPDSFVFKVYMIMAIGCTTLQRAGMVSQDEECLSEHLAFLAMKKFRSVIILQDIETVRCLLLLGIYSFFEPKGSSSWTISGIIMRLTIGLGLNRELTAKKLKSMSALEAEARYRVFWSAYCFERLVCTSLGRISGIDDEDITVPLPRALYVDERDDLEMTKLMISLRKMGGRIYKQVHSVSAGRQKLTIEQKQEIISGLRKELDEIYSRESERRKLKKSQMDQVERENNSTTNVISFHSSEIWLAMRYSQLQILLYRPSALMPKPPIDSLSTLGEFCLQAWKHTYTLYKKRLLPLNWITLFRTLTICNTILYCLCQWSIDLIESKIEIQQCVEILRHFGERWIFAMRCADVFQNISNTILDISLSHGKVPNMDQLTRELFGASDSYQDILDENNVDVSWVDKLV
Procedure, shortened: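 Using PURExpress in vitro transcription/translation, GST-tagged yeast transcription factors were made in full-length or DNA-binding-domain form. These were applied at about 100-200 nM to double-stranded universal all-10-mer Agilent arrays, and bound protein was detected with fluorescent anti-GST. Scans were normalised with masliner before the Universal PBM Analysis Suite assigned E-scores to ungapped eight-base words pooled with their reverse complements.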

Sequence | PBM E-score
CGCTAGTC | 0.0421
GGCAGAAA | 0.0733
GTCCTCAC | 0.0102
AAGTACAC | -0.0188
CTCGTCTA | -0.199
AACGGCTA | -0.0813
ATAGGCCC | 0.329
AAGCAATA | -0.0795
CCAGGCCG | 0.05
AGAGAGCT | -0.179
CGCACATA | 0.277
CAAAAGGA | -0.15
AGTTGGGG | -0.215
ATTCAAGA | -0.0798
GACGAACA | 0.0525
TACTAAGA | -0.065
CGAGTCCG | 0.175
CGACAGAG | 0.0441
AAGACTGG | -0.11
TGGAGCCA | -0.202
CCTCGTCG | 0.0785
CAGGGGTC | -0.139

Sequence | PBM E-score
AGATAGGC | -0.13
GGGTCCAC | 0.0782
AACTCGGC | -0.00903
ACTGCAGA | -0.185
CTGCGGAC | 0.226
CTAGTTAA | -0.0436
ACCACAGC | -0.0817
CTGGAAAA | -0.0126
TCGTGACA | -0.123
CCCCCGGG | 0.237
AGCACGGG | 0.199
ACGTGCCG | 0.093
CAATAGAG | -0.255
CATACCTA | -0.146
AGAAGGTC | -0.0142
GGAGCAGA | -0.1
CGCGTAGA | -0.155
AGAAGTAT | -0.168
ACCGAAGG | 0.227
GAGGTGGA | 0.0596
GCCGAGGA | -0.00831
GTTCTATA | -0.0515

Sequence | PBM E-score
AGATCAGG | -0.126
CTTGACCC | 0.0204
AGCGTCAC | -0.0884
CTTCATGC | 0.0192
AATGACAT | -0.161
CATTGAAC | -0.0368
ACCTCAAG | -0.321
TAAAGTAA | -0.128
AAGAGCAA | -0.0829
ACATCGGT | 0.344
CGCTAAAA | 0.0761
GTGCGCAC | 0.183
CCCATAGA | -0.285
ACCGCCAG | 0.368
GAAAGTAA | 0.0101
AAGTGACG | 0.0708
AGTCAAAA | -0.00563
CTTCAGGA | -0.0938
ACACTTCA | -0.222
CCAGCATA | -0.179
ATCGGTCC | 0.396
CCTGATAG | -0.182

Sequence | PBM E-score
AGAGCTCG | -0.167
AGGCTTGC | -0.336
GTCTCGGA | 0.0832
TATGCACA | -0.16
GATATTCC | 0.239
GGCGCGTA | 0.0314
CGCATATA | 0.18
CCCCCCTA | -0.234
TCCTAGGA | -0.186
TGGGATAA | 0.0481
ACTTTACC | 0.0955
ATGATTCC | 0.0675
GAGTCGAA | -0.157
ATGGCTTC | -0.305
ACTGAGAC | -0.159
ATTACGCC | 0.106
CGGGTGGA | -0.0171
TCGGTTAA | 0.148
ACGCCGAC | 0.435
AAATATCC | 0.287
CTGCGAGC | 0.0356
ATCTGTCA | -0.111

Sequence | PBM E-score
AACCGAAT | 0.0411
CTCGATTC | -0.268
GCAAGTAA | 0.0422
ATCTTCAG | -0.233
GTGTGGCA | -0.155
ATTTCCGG | 0.27
AAATTGGT | -0.0138
CTGCCGGA | 0.0838
ACGTGGGC | 0.0595
GCAGGCTA | -0.122
CACCTTGG | -0.106
ATGCAATC | -0.146
ATTCCAAT | -0.0948
AAGGCGCG | 0.0688
CACACGAA | -0.105
CTTCTTTA | 0.113
AAACCCGC | 0.414
ATGGACTA | -0.0893
CGTATGAA | 0.0232
ACAGACTA | -0.255
ACCAGAAG | -0.0974
TGGTTACA | 0.0306
